Assay results reported in PubChem BioAssay AID588795 (National Center for Advancing Translational Sciences (NCATS), 2011).
“And” between values parts separate entries of the source, which are not always exact repeats. Identical values can stand only once. Out of some 390,000 compounds screened, about 1,400 (0.36%) were called active. The inconclusive results got no clear call from the source; some entries with a clear call stand among them for comparison. Calls come from the whole dose curve; as a rule, active = well fitted inhibition curve with a large enough effect; inconclusive = small, poorly fitted or top-dose-only effect; inactive = no such curve, though single readings can be large or run the other way. Potencies of inconclusive entries are doubtful fits and often do not repeat.

Target: Flap endonuclease 1 (Homo sapiens) (UniProt P39748)
Experiment: qHTS Assay for the Inhibitors of Human Flap endonuclease 1 (FEN1). Note: nearly all actives have a fitted effect of over 65% in size.
Settings: Recombinant FEN1 flap cleavage, fluorescence, 15 min; series mostly up to 114 µM
How it was run: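 Quantitative HTS format: each compound was titrated, incubated with 10 nM nuclease for 15 min at room temperature, then challenged with flap substrate at 50 nM final. Signal change over 15 min gave concentration–effect curves.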
Potency is the fitted concentration of half-maximal effect; tags give direction and shape of the fitted curve.

UniProt P39748, sequence (P39748 whole entry, looked up): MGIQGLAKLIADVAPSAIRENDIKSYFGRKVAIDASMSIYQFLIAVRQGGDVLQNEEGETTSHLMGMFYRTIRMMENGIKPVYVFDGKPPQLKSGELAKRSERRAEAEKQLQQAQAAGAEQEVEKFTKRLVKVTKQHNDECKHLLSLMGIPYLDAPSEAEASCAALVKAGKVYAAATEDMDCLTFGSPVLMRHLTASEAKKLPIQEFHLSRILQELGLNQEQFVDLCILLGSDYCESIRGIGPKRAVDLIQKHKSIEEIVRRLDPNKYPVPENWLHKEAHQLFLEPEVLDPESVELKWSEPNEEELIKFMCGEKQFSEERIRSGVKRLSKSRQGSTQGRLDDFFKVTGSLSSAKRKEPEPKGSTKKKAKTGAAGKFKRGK

Row | SMILES | Potency
1 | O=C1/C(=C/C=C/c2ccco2)SC(=S)N1NS(=O)(=O)c1ccccc1 | active: 3.98 µM
2 | CCc1ccc(N=C2NC(=O)/C(=C/c3cc(Br)c(OCC(=O)O)c(OC)c3)S2)cc1 | active: 50.1 µM
3 | COc1ccc(CNC(=O)Cc2c(C)c3cc4c(C)coc4c(C)c3oc2=O)cc1 | inactive
4 | O=C(CSc1ncnc2sc3c(c12)CCCC3)c1ccccc1 | inactive
5 | O=C(COC(=O)c1ccc([N+](=O)[O-])o1)Nc1ccc(N2CCOCC2)cc1 | inconclusive: 35.5 µM [inhibitor, partial curve, poor fit]
6 | CN1C(=O)CC[C@H]1c1cccnc1 | inconclusive: 6.7 µM [inhibitor, single point]
7 | CN(c1cccc(NC(=O)c2ccc(N(C)S(=O)(=O)c3ccccc3)cc2)c1)S(C)(=O)=O | inconclusive: 70.8 µM [inhibitor, partial curve]
8 | Cc1ccc(C)c(S(=O)(=O)N/N=C2/CCCc3ccccc32)c1 | inconclusive: 89.1 µM [inhibitor, partial curve, poor fit]
9 | COC(=O)CCC(=O)OC1(C)C(=O)C=C2C=C3CCCN3C=C2C1=O (stereo not drawn) | inconclusive: 39.8 µM [inhibitor, single point]
10 | COc1cc(C(=O)Oc2c(Sc3ccccc3)c(C)nn2-c2ccccc2)cc(OC)c1OC | inconclusive: 22.4 µM [inhibitor, partial curve, poor fit]
11 | CC(OC(=O)c1cnccn1)C(=O)Nc1nc(-c2cccc([N+](=O)[O-])c2)cs1 (stereo not drawn) | inconclusive: 8.91 µM [inhibitor, partial curve, poor fit]
12 | Cc1cccc(N/C=C(\[N+](=O)[O-])S(=O)(=O)c2ccccc2)c1 | inactive
13 | CC(=O)c1cc2c(cc1N/C(=N/S(=O)(=O)c1ccc(Cl)cc1)c1ccc(F)cc1)OCO2 | inactive
14 | CCCC(=O)N1CCN(c2ccc(NC(=O)c3cccs3)cc2)CC1 | inactive
15 | Cc1cc(N2CCN(c3ccccc3)CC2)n2cc(-c3ccccc3)nc2n1 | inconclusive: 79.4 µM [inhibitor, partial curve, poor fit]
16 | COc1ccc(CNCCNC(=O)c2nonc2N)cc1OC | inactive
17 | COc1ccc(CNC(=O)CC(C)S(=O)(=O)c2ccc3c(c2)NC(=O)CO3)cc1 (stereo not drawn) | inactive
18 | CC(C)COc1ccc(CNC(=S)NCc2ccccc2)cc1 | inconclusive: 50.1 µM [inhibitor, partial curve, poor fit]
19 | Cc1sc2ncnc(SCC(=O)Nc3cccc(S(N)(=O)=O)c3)c2c1C | inconclusive: 39.8 µM [inhibitor, full curve, poor fit]
20 | O=[N+]([O-])c1cc(/C=N/n2c(-c3cccnc3)n[nH]c2=S)ccc1Cl | active: 56.2 µM
21 | CCOCCCNC(=O)c1ccc(Cn2c(=S)[nH]c3c([nH]c4ccc(OC)cc43)c2=O)cc1 | inactive

Row | SMILES | Potency
22 | Cc1ccc(-c2nc3ccccn3c2NCc2ccc3c(c2)OCO3)cc1 | inconclusive: 79.4 µM [inhibitor, partial curve, poor fit]
23 | O=C(Cn1c(=O)oc2ccccc21)Nc1n[nH]c(=S)s1 | inconclusive: 89.1 µM [inhibitor, single point]
24 | C=CC(C)n1c(Br)nc2c1c(=O)[nH]c(=O)n2C (stereo not drawn) | inactive
25 | O=C1NC(=Nc2ccccc2Cl)S/C1=C\c1cc([N+](=O)[O-])ccc1O | inconclusive: 20 µM [inhibitor, full curve, poor fit]
26 | Nc1nc(-c2ccc(F)cc2)cc(C(F)(F)F)n1 | inactive
27 | O=S(=O)(N/N=C\c1ccccc1O)c1ccc(Cl)cc1 | inactive
28 | COC(=O)[C@H](NC(=O)c1cc(-c2ccccc2)nc2ccccc12)c1ccccc1 | inconclusive: 7.52 µM [inhibitor, full curve]
29 | COc1ccc(/C=C2/SC(=O)N(CCC(=O)Nc3ccc(S(=O)(=O)Nc4nccs4)cc3)C2=O)cc1 | inconclusive: 89.1 µM [inhibitor, single point]
30 | CN(C)c1ccc(/C=C/c2cc(/C=C/c3ccc(N(C)C)cc3)c3ccccc3n2)cc1 | inconclusive: 79.4 µM [inhibitor, single point]
31 | Cc1cc(C)cc(NC(=O)Nc2cc(S(=O)(=O)N(C)C)ccc2C)c1 | inconclusive: 44.7 µM [inhibitor, partial curve, poor fit]
32 | CCOc1ccc(C(NC(=O)CC)c2c(O)ccc3ccccc23)cc1 (stereo not drawn) | inactive
33 | Nc1ncnc2c1ncn2[C@@H]1O[C@H](CNCc2ccc(-c3cc(C(F)(F)F)ccc3Cl)o2)[C@@H](O)[C@H]1O | inactive
34 | O=c1cc(Br)c(O)c(Br)cc1Br | inconclusive: 50.1 µM [inhibitor, partial curve, poor fit]
35 | O=C(N/N=C/c1ccc(-c2ccc(S(=O)(=O)Nc3ncccn3)cc2)o1)c1cc2ccccc2cc1O | active: 15.8 µM
36 | Cc1ccc(C)c(NC(=O)Nc2cc3c(cc2N2CCCCC2)n(C)c(=O)n3C)c1 | inconclusive: 35.5 µM [inhibitor, partial curve, poor fit]
37 | Cc1ccc(NC(=O)Cn2cnc3c(oc4ccccc43)c2=O)cc1Cl | inactive
38 | Cc1ccc(-n2cccc2/C=C2/C(=N)N3C(=NC2=O)SN=C3S(C)(=O)=O)cc1Cl | inconclusive: 89.1 µM [inhibitor, single point]
39 | CCN1/C(=C\c2ccc3ccccc3[n+]2CC)Sc2cc(C)ccc21 | inconclusive: 11.2 µM [inhibitor, partial curve, poor fit]
40 | C#CCOCCOCCOCCNc1nc(N2CCN(C(=O)CCCCCCCCCCNC(=O)[C@@H](CCC(=O)O)n3cc(CCCCCN)nn3)CC2)nc(N2CCN(C(=O)CCCCCCCCCCNC(=O)[C@@H](CCC(=O)O)n3cc(CCCCCN)nn3)CC2)n1 | inactive
41 | COc1ccc(NC(=O)CSc2nc3ccccc3nc2N2CCOCC2)c(OC)c1 | inconclusive: 35.5 µM [inhibitor, partial curve, poor fit]
42 | O=C(Nc1ccc2c(c1)OCCO2)c1ccc(Cl)c([N+](=O)[O-])c1 | inconclusive: 89.1 µM [inhibitor, partial curve, poor fit]

Row | SMILES | Potency
43 | COc1ccc(C(CNc2nc(-c3cccnc3)nc3ccccc23)N(C)C)cc1 (stereo not drawn) | inconclusive: 44.7 µM [inhibitor, partial curve, poor fit]
44 | COc1ccc(C(=O)/C=C/c2cn(CC(O)CN3CCCCCC3)c3ccccc23)cc1OC (stereo not drawn) | inconclusive: 79.4 µM [inhibitor, partial curve]
45 | CC1(C)Cc2c(cnn2-c2ccccc2)-c2c1c1ccccc1n2CC(O)CCl (stereo not drawn) | inconclusive: 79.4 µM [inhibitor, partial curve, poor fit]
46 | Oc1ccc2ccccc2c1/C=N/c1nccs1 | inconclusive: 100 µM [inhibitor, partial curve, poor fit]
47 | COc1cc(C(=O)Nc2nc(OC)c(-c3ccccc3)c(OC)n2)cc(OC)c1OC | inconclusive: 50.1 µM [inhibitor, partial curve, poor fit]
48 | C=CCn1c(SCc2cc(=O)n3ccsc3n2)nnc1C1CCCCC1 | inactive
49 | CC(CC(=O)Nc1cccc(S(=O)(=O)N2CCCCC2)c1)c1ccccc1 (stereo not drawn) | inconclusive: 56.2 µM [inhibitor, partial curve, poor fit]
50 | Cc1ccc(NC2(c3ccccc3)C(=O)c3ccccc3C2=O)cc1F | inconclusive: 89.1 µM [inhibitor, partial curve, poor fit]
51 | Cc1snc(SCc2ccc(Cl)cc2)c1C#N | inconclusive: 70.8 µM [inhibitor, partial curve, poor fit]
52 | O=C(O)c1ccc(N=Nc2c(O)[nH]c3cc(Cl)ccc23)cc1 | inconclusive: 56.2 µM [inhibitor, partial curve, poor fit]
53 | O=C(CSc1nn(-c2ccccc2)c(=S)s1)Nc1ncccn1 | inactive
54 | COC(CN1CCc2c(C)nc3c(C#N)cnn3c21)OC | inactive
55 | O=C(Nc1ccccc1)c1nc[nH]c1C(=O)NCCCNC(=O)c1[nH]cnc1C(=O)Nc1ccccc1 | inactive
56 | CCCCN(CC)CCNC(=S)Nc1ccc2nc(N3CCN(C)CC3)cc(C)c2c1 | inconclusive: 89.1 µM [inhibitor, partial curve, poor fit]
57 | Cc1cccc(NC(=O)CN2C(=O)S/C(=C\c3cccn3-c3cccc(C(=O)O)c3)C2=O)c1 | inconclusive: 89.1 µM [inhibitor, single point]
58 | Cc1ccc(CN2C(=O)N/C(=C/c3ccc(-c4ccc(C(=O)O)cc4)o3)C2=O)cc1 | inconclusive: 89.1 µM [inhibitor, single point]
59 | Cc1ccc(NS(=O)(=O)c2ccc(N/N=C/c3ccccc3OCC(=O)O)c([N+](=O)[O-])c2)c(C)c1 | inconclusive: 50.1 µM [inhibitor, partial curve, poor fit]
60 | COc1cc2c(cc1NC(=O)C(C)OC(=O)/C=C/c1ccc(OC(F)F)cc1)oc1ccccc12 (stereo not drawn) | inconclusive: 89.1 µM [inhibitor, partial curve, poor fit]
61 | Cc1cc(NC(=O)Nc2ccc3c(ccn3C)c2)sn1 | inconclusive: 89.1 µM [inhibitor, partial curve, poor fit] and inconclusive: 37.7 µM [inhibitor, single point]
62 | CC(C)N(Cc1cn(C)nc1-c1cccc(Cl)c1)Cc1nccn1C | inactive
63 | Oc1nc(Nc2ccc(Cl)cc2Cl)sc1/C=C1\C=Nc2ccccc21 | inconclusive: 89.1 µM [inhibitor, partial curve, poor fit]
